Experimental data: PubChem BioAssay AID686970 (National Center for Advancing Translational Sciences (NCATS), 2013)
Screen size: about 360,000 compounds; about 6,000 (1.7%) were called active. The shares of active, inactive and inconclusive entries below differ from those in the screen. Calls follow the shape of the dose curve; as a rule, active = well fitted cell-killing curve with a large enough effect; inconclusive = small, poorly fitted or top-dose-only effect, or effect the other way; inactive = flat fitted curve, though single readings scatter. Potencies of inconclusive entries are doubtful fits and often do not repeat.

Test: qHTS for induction of synthetic lethality in tumor cells producing 2HG: qHTS for the HT-1080-NT fibrosarcoma cell line;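 also: NT is the 2HG producing partner of a matched IDH1 knockdown line; nearly all actives have a fitted effect of over 55% in size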;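 as to activity, negative = less viability: 0% = DMSO-treated cells and -100% = media-only wells without cells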
Settings: HT-1080-NT fibrosarcoma viability, CellTiter-Glo ATP luminescence, 48 h; activity, negative = less viability: at 46.1 µM (top of the series) unless noted
In short: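 HT-1080-NT; 750 cells/well; 5% FBS RPMI; 48 h compound, 37 degrees C; CellTiter-Glo luminescence; curve fitting and curve-class assignment.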
Potency is read from the fitted curve at half-maximal effect; tags tell the direction and shape of the fitted curve.

Structure (SMILES) | Potency | activity, negative = less viability
Cc1ccc(S(=O)(=O)CCC(=O)OCC(=O)NC(N)=O)cc1 | inconclusive: 29.1 µM [rising, single point] | 
COc1ccc(Cn2c(=O)cc(N)n(-c3ccccc3C)c2=O)cc1 | active: 20.6 µM | 
Fc1ccc(C(CCNCc2cccs2)c2ccco2)cc1 (stereo not given) | inconclusive: 23.1 µM [cytotoxic, single point] | 
CC(=O)c1ccc(NS(=O)(=O)c2ccc(CC(C)C)cc2)cc1 | inconclusive: 35.5 µM [cytotoxic, single point] | 
Clc1ccc2nc(-c3ccco3)c(Cc3ccsc3)n2c1 | inconclusive: 29.1 µM [cytotoxic, single point] | 
COC/C=C/C1=CC2=CC(=O)C(C)(OC(=O)C3CCCC3)C(=O)C2=CO1 (stereo not given) | inactive | 
COCCN(C(=O)COC(=O)CSc1ccc2ccccc2c1)c1c(N)n(Cc2ccccc2)c(=O)[nH]c1=O | inactive | 
COc1ccc(C)cc1NC(=O)CNC(c1ccccc1)c1ccc(C)cc1 (stereo not given) | inconclusive: 5.17 µM [cytotoxic, full curve] | 
O=C(N/N=C/c1ccc(OC(=O)c2ccccc2Cl)cc1)c1cc(O)cc(O)c1 | inconclusive: 32.6 µM [cytotoxic, single point] | 
CCC1(c2ccc(F)cc2)NC(=O)N(CC(=O)NCC(=O)Nc2cccc(C)c2C)C1=O (stereo not given) | inactive | 
O=C(N/N=C/c1ccc2c(c1)OCO2)c1ccn(Cc2ccc(Cl)cc2)n1 | inconclusive: 20.6 µM [cytotoxic, single point] | 
Cc1cccc(NC(=O)CN2C(=O)NC(C)(c3ccc4ccccc4c3)C2=O)n1 (stereo not given) | inactive | 
CC(C)n1c(C(=O)OCC(=O)NCc2ccc3c(c2)OCO3)cc2sccc21 | inconclusive: 35.5 µM [cytotoxic, single point] | 
CN(C)c1ccc(/C=C/C#N)cc1 | inactive | 
CCOC(=O)c1c(NC(=O)COc2cccc3c2CCN(C)C3=O)sc2c1CCC2 | inconclusive: 18.4 µM [cytotoxic, single point] | 
CCCn1c(CN2CCN(C(=O)OCC)CC2)nc2cc(NC(C)=O)ccc21 | inactive | 
CCNC(=O)C1(C)CCCN1Cc1c(F)cccc1F (stereo not given) | inconclusive: 29.1 µM [rising, single point] | 
CCC(C)N1CCN(S(=O)(=O)Cc2ccccc2)CC1 (stereo not given) | inconclusive: 16.4 µM [rising, single point] | 
O=C1N/C(=N\N=C\c2cccs2)SC1Cc1ccc(Cl)cc1Cl (stereo not given) |  | inconclusive: -1.9% [cytotoxic]
Cc1ccccc1C(=O)Nc1cccc(C(=O)N/N=C/c2cc(Cl)cc([N+](=O)[O-])c2O)c1 | inconclusive: 13 µM [cytotoxic, partial curve] | 
COc1cc(C(=O)Nc2ccc(NC(=O)C3CCCCC3)nc2)cc(OC)c1OC | inconclusive: 10.3 µM [cytotoxic, partial curve] | 
CC1(C)CC(NS(=O)(=O)c2ccc(C(C)(C)C)cc2)CC(C)(C)N1 | inactive | 
O=C(N/N=C/c1cccnc1)c1cccc(Cl)c1 | inactive | 
C/C(CC1CC(C)OC1=O)=N\NC(N)=S (stereo not given) | inactive | 
O=C(CCCc1c[nH]c2ccccc12)NCc1cccs1 | inactive | 

Structure (SMILES) | Potency | activity, negative = less viability
O=C(NCc1cccc(C(F)(F)F)c1)c1cc(Cl)ccc1Cl | inactive | 
CN(C)CCNC(=O)c1ccc(COc2ccc(Cl)cc2Cl)cc1 | active: 10 µM | 
CCN(CC)c1ncnc2c1cnn2Cc1ccc(C)cc1 | inactive | 
Cc1nnc(SCC(=O)NNC(=O)c2ccccc2)n1N |  | inconclusive: -4.98% [at 9.24 µM]
COC(=O)[C@]12CCCCC=C1N(Cc1ccccc1)C(=O)[C@H](CC(=O)N1CCN(C(=O)c3ccco3)CC1)C2 | inactive | 
N#CC1=C(N)Oc2c(ccc3ccccc23)C1c1cccs1 (stereo not given) | active: 2 µM | 
O=C(Nc1ccc(F)c(Cl)c1)Nc1csc2ccccc12 | active: 9.2 µM | 
CC1CCN(CCCn2c(SCC(=O)Nc3ccccc3Cl)nc3ccccc3c2=O)CC1 | inconclusive: 29.1 µM [cytotoxic, single point] | 
COc1ccccc1-c1nnc(-c2ccc(N3CCOCC3)cc2)o1 | inactive | 
COC(CN(C(=O)CCl)C(C(=O)NC1CCCCC1)c1ccccc1C)OC (stereo not given) | active: 18.4 µM | 
Cc1ccc2c(c1)C1CN(C)CCC1N2S(=O)(=O)c1ccc(Oc2ccc([N+](=O)[O-])cc2)cc1 (stereo not given) | inconclusive: 18.4 µM [cytotoxic, single point] | 
c1ccc(-c2ccccc2OCCCCN2CCCCC2)cc1 | inconclusive: 29.1 µM [cytotoxic, single point] | 
COc1ccccc1-c1cnc(C(O)c2cc(C)c(OC)c(C)c2)[nH]1 (stereo not given) | inconclusive: 29.1 µM [cytotoxic, single point] | 
COc1ccc(-c2cccc(-c3cc(=O)oc4cc(OC)c(OC)c(OC)c34)c2)cc1 | inconclusive: 13 µM [cytotoxic, partial curve] | 
Clc1ccc(CNc2ncnc3[nH]ncc23)cc1Cl | inconclusive: 3.66 µM [cytotoxic, single point] | 
CC(=O)NCCNc1nc2cc(-c3cscc3C)sc2c(=O)n1C | inactive | 
c1ccc2c(c1)oc1c(Nc3ccc4c(c3)OCO4)ncnc12 | inconclusive: 13 µM [cytotoxic, partial curve] | 
COc1ccc(C(=O)NNC(=O)c2ccccn2)cc1 | active: 20.6 µM | 
CC1Cc2ccccc2N1C(=O)CSc1nnc(CNc2ccccc2)o1 (stereo not given) | inactive | 
COc1cc(/C=N/NC(N)=S)ccc1OCC(=O)Nc1ccc(C)c(C)c1 | inactive | 
CCN(CC)c1ccc(NS(=O)(=O)c2ccc(OC)cc2)cc1 | inactive | 
CN(C)c1cc[n+](CC(=O)Nc2cc(C(F)(F)F)ccc2Cl)cc1 | inconclusive: 35.5 µM [cytotoxic, single point] | 
NNc1ccc(Cc2ccc(Cl)cc2Cl)nn1 | inconclusive: 32.6 µM [cytotoxic, single point] | 
CC(Sc1ncnc2sccc12)C(=O)Nc1ccc(S(=O)(=O)N2CCOCC2)cc1 (stereo not given) | inactive | 
CC1CC(C)(C)N2C(=O)C3(Nc4ccccc4S3)c3cccc1c32 (stereo not given) | inconclusive: 25.1 µM [cytotoxic, single point] | 
